Laboratory results reported in patent US20260217645A1, “AMINO LIPID COMPOUND, AND PREPARATION METHOD THEREFOR AND USE THEREOF” (SHENZHEN SHENXIN BIOTECHNOLOGY CO., LTD., priority 2023, published 2026).
The name of at least one read-out is uncertain.

System: Female BALB/c mice
Assay: In vivo delivery of Fluc mRNA-encapsulating lipid nanoparticles (IVIS luciferase imaging)
Conditions: Fluc mRNA LNP, tail vein injection (IV), volume injected 40 μL, 6 hours after injection

**Q.** With `CCCCCCCCCCCOC(=O)CCCCCCCCC(CCCCCCCCC(=O)OCCCC(OCCCCCC)OCCCCCC)N(C)CCCNc1c(NC)c(=O)c1=O` (stereo not drawn) [compound 1912] as the compound, how does the “Average number of photons (Liver)” value read?
**A.** 2.08E+07 p/s/cm^2/sr

**Q.** And the “Average number of photons (Spleen)” value?
**A.** 1.06E+07 p/s/cm^2/sr

**Q.** What about the “Average number of photons (Total in-vivo flux)” value of the same compound?
**A.** 7.52E+07 p/s/cm^2/sr

**Q.** What does the source list for `CCCCCCCCCCCCOC(=O)CCCCCCCCC(CCCCCCCCC(=O)OCCCC(OCCCCCC)OCCCCCC)N(C)CCCNc1c(NC)c(=O)c1=O` (stereo not drawn) [compound 1913]?
**A.** Average number of photons (Liver): 1.68E+07 p/s/cm^2/sr; Average number of photons (Spleen): 6.07E+06 p/s/cm^2/sr; Average number of photons (Total in-vivo flux): 5.27E+07 p/s/cm^2/sr

**Q.** Which results are given for `CCCCCCOC(CCCOC(=O)CCCCC(CCCCC(=O)OCCCC(OCCCCCC)OCCCCCC)N(C)CCCNc1c(NC)c(=O)c1=O)OCCCCCC` [compound 1924]?
**A.** Average number of photons (Liver): 4.84E+07 p/s/cm^2/sr; Average number of photons (Spleen): 1.79E+07 p/s/cm^2/sr; Average number of photons (Total in-vivo flux): 1.29E+08 p/s/cm^2/sr

**Q.** With `CCCCCCOC(CCCOC(=O)CCCCCC(CCCCCC(=O)OCCCC(OCCCCCC)OCCCCCC)N(C)CCCNc1c(NC)c(=O)c1=O)OCCCCCC` [compound 1925] as the compound, how does the “Average number of photons (Liver)” value read?
**A.** 3.05E+07 p/s/cm^2/sr

**Q.** What about the “Average number of photons (Spleen)” value of the same compound?
**A.** 7.38E+06 p/s/cm^2/sr

**Q.** And the “Average number of photons (Total in-vivo flux)” value?
**A.** 8.98E+07 p/s/cm^2/sr

**Q.** For `CCCCCCOC(CCCOC(=O)CCCCCCC(CCCCCCC(=O)OCCCC(OCCCCCC)OCCCCCC)N(C)CCCNc1c(NC)c(=O)c1=O)OCCCCCC` [compound 1926], which “Average number of photons (Liver)” value is on record?
**A.** 1.46E+07 p/s/cm^2/sr

**Q.** And the “Average number of photons (Spleen)” value?
**A.** 4.36E+06 p/s/cm^2/sr

**Q.** And the “Average number of photons (Total in-vivo flux)” value?
**A.** 5.72E+07 p/s/cm^2/sr

**Q.** `CCCCCCOC(CCCOC(=O)CCCCCCCC(CCCCCCCC(=O)OCCCC(OCCCCCC)OCCCCCC)N(C)CCCNc1c(NC)c(=O)c1=O)OCCCCCC` [compound 1927] was tested. Which “Average number of photons (Liver)” value did it give?
**A.** 2.37E+07 p/s/cm^2/sr

**Q.** What about the “Average number of photons (Spleen)” value of the same compound?
**A.** 7.00E+06 p/s/cm^2/sr

**Q.** What about the “Average number of photons (Total in-vivo flux)” value of the same compound?
**A.** 7.59E+07 p/s/cm^2/sr

Same assay, conditions: Fluc mRNA LNP, tail vein injection (IV), volume injected 50 μL, 6 hours after injection

**Q.** Which “Average number of photons (Liver)” value does the source give for `CCCCCCCCC(CC)OC(=O)CCCCCCCCC(CCCCCCCCC(=O)OC(CCCCCCCC)CCCCCCCC)N(C)CCCNc1c(NC)c(=O)c1=O` (stereo not drawn) [compound 1874] here?
**A.** 7.03E+07 p/s/cm^2/sr

**Q.** What about the “Average number of photons (Spleen)” value of the same compound?
**A.** 6.51E+06 p/s/cm^2/sr

**Q.** And the “Average number of photons (Total in-vivo flux)” value?
**A.** 2.42E+08 p/s/cm^2/sr

**Q.** How did the “Average number of photons (Liver)” value turn out when `CCCCCCCCC(CCC)OC(=O)CCCCCCCCC(CCCCCCCCC(=O)OC(CCCCCCCC)CCCCCCCC)N(C)CCCNc1c(NC)c(=O)c1=O` (stereo not drawn) [compound 1875] was run?
**A.** 2.50E+07 p/s/cm^2/sr

**Q.** What about the “Average number of photons (Spleen)” value of the same compound?
**A.** 9.22E+05 p/s/cm^2/sr

**Q.** What about the “Average number of photons (Total in-vivo flux)” value of the same compound?
**A.** 6.80E+07 p/s/cm^2/sr

**Q.** `CCCCCCCCC(C)OC(=O)CCCCCCCCC(CCCCCCCCC(=O)OC(CCCCCCCC)CCCCCCCC)N(CC)CCCNc1c(NC)c(=O)c1=O` (stereo not drawn) [compound 1880] was tested. Which “Average number of photons (Liver)” value did it give?
**A.** 6.10E+06 p/s/cm^2/sr

**Q.** What about the “Average number of photons (Spleen)” value of the same compound?
**A.** 6.52E+05 p/s/cm^2/sr

**Q.** What about the “Average number of photons (Total in-vivo flux)” value of the same compound?
**A.** 1.91E+07 p/s/cm^2/sr

**Q.** What does the source list for `CCCCCCC(CCCC)COC(=O)CCCCCCCCC(CCCCCCCCC(=O)OCC(CCCC)CCCCCC)N(CC)CCCNc1c(NC)c(=O)c1=O` (stereo not drawn) [compound 1881]?
**A.** Average number of photons (Liver): 5.43E+06 p/s/cm^2/sr; Average number of photons (Spleen): 1.57E+06 p/s/cm^2/sr; Average number of photons (Total in-vivo flux): 2.38E+07 p/s/cm^2/sr

**Q.** How did the “Average number of photons (Liver)” value turn out when `CCCCCCC(CCCC)COC(=O)CCCCC(CCCCC(=O)OCC(CCCC)CCCCCC)N(C)CCCNc1c(NC)c(=O)c1=O` (stereo not drawn) [compound 1928] was run?
**A.** 7.71E+06 p/s/cm^2/sr

**Q.** What about the “Average number of photons (Spleen)” value of the same compound?
**A.** 3.10E+06 p/s/cm^2/sr

**Q.** What about the “Average number of photons (Total in-vivo flux)” value of the same compound?
**A.** 4.10E+07 p/s/cm^2/sr

**Q.** For `CCCCCCC(CCCC)COC(=O)CCCCCC(CCCCCC(=O)OCC(CCCC)CCCCC)N(C)CCCNc1c(NC)c(=O)c1=O` (stereo not drawn) [compound 1929], which “Average number of photons (Liver)” value is on record?
**A.** 1.73E+07 p/s/cm^2/sr

**Q.** What about the “Average number of photons (Spleen)” value of the same compound?
**A.** 3.10E+06 p/s/cm^2/sr

**Q.** And the “Average number of photons (Total in-vivo flux)” value?
**A.** 1.04E+08 p/s/cm^2/sr

**Q.** What does the source list for `CCCCCCC(CCCC)COC(=O)CCCCCCC(CCCCCCC(=O)OCC(CCCC)CCCCCC)N(C)CCCNc1c(NC)c(=O)c1=O` (stereo not drawn) [compound 1930]?
**A.** Average number of photons (Liver): 3.57E+07 p/s/cm^2/sr; Average number of photons (Spleen): 6.67E+06 p/s/cm^2/sr; Average number of photons (Total in-vivo flux): 2.02E+08 p/s/cm^2/sr

**Q.** Which results are given for `CCCCCCC(CCCC)COC(=O)CCCCCCCC(CCCCCCCC(=O)OCC(CCCC)CCCCCC)N(C)CCCNc1c(NC)c(=O)c1=O` (stereo not drawn) [compound 1931]?
**A.** Average number of photons (Liver): 3.31E+07 p/s/cm^2/sr; Average number of photons (Spleen): 2.68E+06 p/s/cm^2/sr; Average number of photons (Total in-vivo flux): 1.58E+08 p/s/cm^2/sr

**Q.** What does the source list for `CCCCCCOC(CCCOC(=O)CCCCCCCCC(CCCCCCCCC(=O)OCCCC(OCCCCCC)OCCCCCC)N(C)C)OCCCCCC` [compound 1950]?
**A.** Average number of photons (Liver): 2.64E+07 p/s/cm^2/sr; Average number of photons (Spleen): 1.96E+05 p/s/cm^2/sr; Average number of photons (Total in-vivo flux): 1.22E+08 p/s/cm^2/sr

**Q.** For `CCCCCCOC(CCCOC(=O)CCCCC(CCCCC(=O)OCCCC(OCCCCCC)OCCCCCC)N(C)C)OCCCCCC` [compound 2047], which “Average number of photons (Liver)” value is on record?
**A.** 1.96E+07 p/s/cm^2/sr

**Q.** What about the “Average number of photons (Spleen)” value of the same compound?
**A.** 1.06E+06 p/s/cm^2/sr

**Q.** What about the “Average number of photons (Total in-vivo flux)” value of the same compound?
**A.** 9.03E+07 p/s/cm^2/sr

**Q.** `CCCCCCOC(CCCOC(=O)CCCCCC(CCCCCC(=O)OCCCC(OCCCCCC)OCCCCCC)N(C)C)OCCCCCC` [compound 2048] was tested. Which “Average number of photons (Liver)” value did it give?
**A.** 8.55E+07 p/s/cm^2/sr

**Q.** What about the “Average number of photons (Spleen)” value of the same compound?
**A.** 4.62E+06 p/s/cm^2/sr

**Q.** What about the “Average number of photons (Total in-vivo flux)” value of the same compound?
**A.** 4.13E+08 p/s/cm^2/sr

**Q.** With `CCCCCCOC(CCCOC(=O)CCCCCCCC(CCCCCCCC(=O)OCCCC(OCCCCCC)OCCCCCC)N(C)C)OCCCCCC` [compound 2050] as the compound, how does the “Average number of photons (Liver)” value read?
**A.** 6.30E+07 p/s/cm^2/sr

**Q.** What about the “Average number of photons (Spleen)” value of the same compound?
**A.** 2.74E+06 p/s/cm^2/sr

**Q.** What about the “Average number of photons (Total in-vivo flux)” value of the same compound?
**A.** 3.00E+08 p/s/cm^2/sr

Same assay, conditions: Fluc mRNA LNP, tail vein injection (IV), volume injected 70 μL, 6 hours after injection

**Q.** What does the source list for `CCCCCCCCC(C)SC(=O)OCCCCCCN(CCCCCCOC(=O)SC(CCCCCCCC)CCCCCCCC)CCCNc1c(NC)c(=O)c1=O` (stereo not drawn) [compound 1856]?
**A.** Average number of photons (Liver): 4.49E+07 p/s/cm^2/sr; Average number of photons (Spleen): 7.20E+06 p/s/cm^2/sr; Average number of photons (Total in-vivo flux): 2.31E+08 p/s/cm^2/sr

**Q.** With `CCCCCCC(CCCC)COC(=O)CCCCCCCCC(CCCCCCCCC(=O)OCC(CCCC)CCCCCC)N(C)CCCNc1c(NC)c(=O)c1=O` (stereo not drawn) [compound 1873] as the compound, how does the “Average number of photons (Liver)” value read?
**A.** 9.82E+07 p/s/cm^2/sr

**Q.** And the “Average number of photons (Spleen)” value?
**A.** 4.50E+06 p/s/cm^2/sr

**Q.** What about the “Average number of photons (Total in-vivo flux)” value of the same compound?
**A.** 3.18E+08 p/s/cm^2/sr

**Q.** What does the source list for `CCCCCCCC(CCCOC(=O)CCCCCC(CCCCCC(=O)OCCCC(CCCCCCC)C(=O)OCCCCC)OC(=O)OCCCN(C)C)C(=O)OCCCCC` (stereo not drawn) [compound 2060]?
**A.** Average number of photons (Liver): 5.61E+06 p/s/cm^2/sr; Average number of photons (Spleen): 3.50E+05 p/s/cm^2/sr; Average number of photons (Total in-vivo flux): 4.67E+07 p/s/cm^2/sr
